Source: the RNAGym collection of RNA variant scans (doi:10.7554/elife.90254)
The source gives no read counts; variants with many changes may rest on few reads.

B1: LINE1-full (parent)
chain: UACGUAGGUGGUUUUCCCCUGAUAGUGCUAAGGGGGCCUGGAAGUUUGGACUGGGCAGAGCUCAACACAGCGUGGCAAAGUGGCUGUGGCUAGACUGCCUCUCUGGAUUCCUCGUCACUCAGCAGGGCAUCUCUGAGAGAAAUGCC

Variants of: B1
Test: self-cleavage, relative activity (ratio to wild type); higher = more cleavage; in vitro, sequencing; the parent is a self-cleaving ribozyme
G4A U39A U73A A117U showed a self-cleavage of 1.23.
U20C U29C A78G gave a self-cleavage of 2.48.
Work on U1C U15A A31U yielded a self-cleavage of 0.44.
Variant U13C U81A C120A has a self-cleavage of 1.85.
For U12C G41U G49A A117U, the self-cleavage was 1.55.
With G4A C56U A94G U100C A141G the self-cleavage was 0.04.
Variant A117G A138G A141C A142G has a self-cleavage of 0.92.
A107G U119A A142G U143C gave a self-cleavage of 1.25.
For C3U A92G U96A, the self-cleavage was 0.11.
For U12C U20A U39A G74U A94U U115C U134C A142G, the self-cleavage was 0.77.
For U13C A22G A117C G122A, the self-cleavage was 1.64.
Work on A2G A77U U87C C116U yielded a self-cleavage of 0.1.
U15C A42U U85C U132C A141G gave a self-cleavage of 0.05.
Work on U62A C68U U100C A138G yielded a self-cleavage of 0.04.
Work on U100C U115C C131U yielded a self-cleavage of 1.73.
For A22U U73C U100C A138G U143C, the self-cleavage was 2.87.
Work on A79G U85G U96A A138G yielded a self-cleavage of 0.26.
U15C C38A U47C showed a self-cleavage of 1.9.
Variant U39C A43G A57U U81A U102C has a self-cleavage of 0.11.
Variant A65G A124C A141G has a self-cleavage of 0.11.
For A42G U130C U132C, the self-cleavage was 1.38.
For A43U U46A U62A U109C U143A, the self-cleavage was 0.05.
In the case of C84U A107G U134A A138G, the self-cleavage is reported as 0.15.
Work on A2C U20C U104C yielded a self-cleavage of 2.19.
U9C G25A U91C U112C showed a self-cleavage of 0.
G4A A30G G144A gave a self-cleavage of 0.85.
Work on U20C A69G A140G yielded a self-cleavage of 0.75.
G36C A121G U130C showed a self-cleavage of 1.21.
U81C U109A C133A gave a self-cleavage of 1.11.
In the case of G36U A43G U143C, the self-cleavage is reported as 0.32.
For G7A U20C A65G C90U U104A, the self-cleavage was 0.27.
Work on A42U U115A C145U yielded a self-cleavage of 1.05.
C16U G25A A77U showed a self-cleavage of 0.67.
With U13C A22U U108C C133A the self-cleavage was 1.16.
With U14C C120A A136G the self-cleavage was 1.3.
In the case of U9C U39C A64U U130C, the self-cleavage is reported as 0.88.
For G58A U102C A107U, the self-cleavage was 0.
Work on A50G U62C U119C yielded a self-cleavage of 0.
In the case of G86A U119C A142G, the self-cleavage is reported as 0.13.
U9C U26C U132C A136G U143C gave a self-cleavage of 1.72.
U5G U12C U96C showed a self-cleavage of 0.52.
Variant U85C G126A U132C G139U has a self-cleavage of 0.12.
For U13C C37G U62C A136G, the self-cleavage was 0.11.
A24U G36U U96C A129G showed a self-cleavage of 0.17.
With A31G A43G G80C G83U the self-cleavage was 0.84.
Work on C28A U91A A141G yielded a self-cleavage of 0.41.
For U5C U13A U29C G72U A121U, the self-cleavage was 0.97.
A31G A57G U143A gave a self-cleavage of 1.15.
For A24G A30G A79G A141G, the self-cleavage was 1.27.
With A31G A79G G97A U143C the self-cleavage was 0.16.
Work on G53A G55A A59G U81C yielded a self-cleavage of 0.05.
In the case of U39A U47G U112C, the self-cleavage is reported as 1.71.
G35A U62C A140G showed a self-cleavage of 0.02.
Work on A59G U85C U100C A140G yielded a self-cleavage of 0.
Variant A6U U45G A136U has a self-cleavage of 0.69.
With U13C U46C U102C the self-cleavage was 0.45.
Work on U14A U46C A57G U112A A129G yielded a self-cleavage of 0.
For U12A C61U A78G, the self-cleavage was 0.
For U45C A64C U109C U115A A142G, the self-cleavage was 0.
U13C U100C U108C U143G showed a self-cleavage of 2.3.
U14C A50G U143C gave a self-cleavage of 0.15.
U14C C19G A30G showed a self-cleavage of 0.57.
For G34C G74U U85C U96C A141G, the self-cleavage was 0.06.
With A2U G41A U46C A79G U115C the self-cleavage was 0.89.
U5C U9C U26A U91C gave a self-cleavage of 1.02.
For U13C A57G A78U U81A U119A, the self-cleavage was 0.63.
Variant A57G A65G A129G A142G has a self-cleavage of 0.
U46C A67U G93U G135A gave a self-cleavage of 0.05.
Variant C19U A65U U91C has a self-cleavage of 0.09.
In the case of A6G U52A A57G U100C, the self-cleavage is reported as 1.31.
In the case of C18A U102C A142G, the self-cleavage is reported as 1.53.
U14C A50U U119C A136G A138G showed a self-cleavage of 1.71.
Work on U15C C38A C51U U96C U115C A124G yielded a self-cleavage of 0.
Variant U15C A57G A117G has a self-cleavage of 0.5.
U91A U134C A142G gave a self-cleavage of 0.91.
Variant U12C U20C A57U U73C A117U A124G has a self-cleavage of 0.
U9C C56U U102A A136G showed a self-cleavage of 0.16.
Work on C16U C18U G21A A50G G72A U102C yielded a self-cleavage of 1.03.
G34U A50G A67G gave a self-cleavage of 0.3.
With U15C U46C A57G U87A U100C the self-cleavage was 0.37.
In the case of A78G U109A U134C, the self-cleavage is reported as 0.95.
For A30C U87A U102C A142G, the self-cleavage was 0.05.
A22U U26A U29C U52A A79G showed a self-cleavage of 1.49.
U13A A77G A129C gave a self-cleavage of 1.76.
Variant A6G A31U A129U has a self-cleavage of 1.49.
Work on G72U A78G U81G A136U A141G yielded a self-cleavage of 0.46.
In the case of A2G U87G U112C, the self-cleavage is reported as 0.42.
For U13C U14C U15C, the self-cleavage was 0.78.
With U45C U100C A140G the self-cleavage was 1.1.
Work on U9C G55C A65G yielded a self-cleavage of 0.09.
With U14C A31G A136C the self-cleavage was 1.45.
For U13C U15C A43G, the self-cleavage was 1.84.
In the case of G11A U15C U39C U52C, the self-cleavage is reported as 0.72.
With A6U U26C G58A G144A the self-cleavage was 0.13.
Variant A117U C120U A142G has a self-cleavage of 1.82.
For A2G U14C G58A U73C U132A, the self-cleavage was 0.34.
In the case of G7A U62C A65G, the self-cleavage is reported as 0.21.
Variant C103A C131U A141G has a self-cleavage of 1.13.
With U52A A77G U87C A92U U132C G135A the self-cleavage was 0.15.
With U108C A121C U132C A140C the self-cleavage was 2.3.
With U14A U46A A57G C68U U87A A107G U115A the self-cleavage was 0.03.
Variant A64G A77G A136G A141U has a self-cleavage of 0.72.
Variant A79G U130C A142G has a self-cleavage of 1.08.
Work on U15C U23C U109C A140G yielded a self-cleavage of 0.74.
G21U G75C G106A gave a self-cleavage of 0.17.
Variant A24U U39C A78U U104A U143C has a self-cleavage of 1.41.
Variant U14C A43G A142G has a self-cleavage of 0.72.
Variant A22G U47A U62A C90U U143C has a self-cleavage of 0.04.
Variant U20A G93U U100C U104C A107G has a self-cleavage of 0.
In the case of A42G A57U U132C, the self-cleavage is reported as 0.15.
Variant U102C U115A A124G has a self-cleavage of 1.04.
U47C A65G A142G gave a self-cleavage of 0.13.
U9C U15C G139C A142G showed a self-cleavage of 1.53.
In the case of U14C A67C U108C, the self-cleavage is reported as 0.22.
Variant A30G U39C G60A C90A has a self-cleavage of 0.1.
Variant U9A U91G U96C has a self-cleavage of 0.
With U14C A129G C133U the self-cleavage was 2.47.
In the case of A94G U115C U143G, the self-cleavage is reported as 0.15.
Work on U13A A22G U132C yielded a self-cleavage of 0.55.
For A65U U87C A94G, the self-cleavage was 0.13.
Variant U9C U52G C103A U143G has a self-cleavage of 0.84.
For U73A A92G U112C A138G, the self-cleavage was 0.
Variant G8A U102C U119C A121U has a self-cleavage of 1.44.
For A50U U87C A107U, the self-cleavage was 0.34.
With U26A U119C A121U A141G the self-cleavage was 1.3.
U14C A59G G60C C76U showed a self-cleavage of 0.05.
With U13C A22G C37G U87C A107G A121U the self-cleavage was 1.41.
For U14C U26C C56U A94G U115A, the self-cleavage was 0.18.
Variant C37A U87C U130C A140G has a self-cleavage of 0.07.
A22G A64C G114C gave a self-cleavage of 0.37.
A24G A64G A117G showed a self-cleavage of 0.
U15C C19U A42G U45C A59G U108C showed a self-cleavage of 0.
In the case of A50G U87C U108A A121U, the self-cleavage is reported as 0.
G53A G72A G88A A94G G127C gave a self-cleavage of 0.04.
With U13C A30U C38U U87C A136G A140G the self-cleavage was 0.35.
Variant G10A G32C U143C has a self-cleavage of 1.8.
U9C U13C G32A showed a self-cleavage of 1.25.
For A50G A57C A142G, the self-cleavage was 0.
With G53A A124U A138G the self-cleavage was 1.52.
U39C A59G A79U U119A gave a self-cleavage of 0.
U12C U14C G55A C90A A129U gave a self-cleavage of 0.05.
In the case of U26G C84U G88A, the self-cleavage is reported as 0.
U15A A67C G83U U143C showed a self-cleavage of 0.01.
A2G U15A A57G gave a self-cleavage of 1.08.
For U73C A77G G86A A141G U143C, the self-cleavage was 0.29.
Work on U1C U39G A59G U115C A141G A142U yielded a self-cleavage of 0.
With A30G U85C U143C the self-cleavage was 0.44.
With U13C C71A A117G U134C A140G the self-cleavage was 0.29.
Work on U39C G58C A77C yielded a self-cleavage of 0.03.
Work on U46A A64G U119C A121U A140G yielded a self-cleavage of 0.42.
For A2G U85C U108C C118U A142G, the self-cleavage was 0.
U62C U73C G127A showed a self-cleavage of 0.03.
Work on U15C U109C U119A yielded a self-cleavage of 0.32.
U9C U62C A69U showed a self-cleavage of 0.06.
Work on A77G U108G U115A yielded a self-cleavage of 2.76.
A2G G72A U108C gave a self-cleavage of 1.21.
Variant U13C A64U A92U has a self-cleavage of 0.26.
A69U U100A A138G showed a self-cleavage of 0.02.
In the case of U13C A69G U87C, the self-cleavage is reported as 0.21.
Work on U15C A67G U85C yielded a self-cleavage of 0.26.
In the case of U39A G58A A77U C90U A142G, the self-cleavage is reported as 0.01.
U15A A30C U85C U130C showed a self-cleavage of 0.
For A24U U62A A69G A94G, the self-cleavage was 0.31.
G34C U96C U108C gave a self-cleavage of 0.
In the case of U12A A77G U96C, the self-cleavage is reported as 0.
With A67G C76U A79G U134C A140G the self-cleavage was 0.46.
Work on A22G U100C U130C yielded a self-cleavage of 0.63.
